From the RNAGym collection of RNA variant scans (doi:10.1073/pnas.2313332121)
Variants at the background level are over-represented here.

B1: TPR 5TU (parent)
chain: GGAUCUUCUCGAUCUAACAAAAAAGACAAAUCUGCCACAAAGCUUGAGAGCAUCUUCGGAUGCAGAGGCGGCAGCCUUCGGUGGCGCGAUAGCGCCAACGUUCUCAACUAUGACACGCAAAACGCGUGCUCCGUUGAAUGGAGUUUAUCAUG

Variants of: B1
Experiment: polymerase ribozyme fitness, log enrichment relative to wild type (log ratio); higher = more active; in vitro selection for triplet polymerase activity
Method in brief: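 One round of in vitro selection, in triplicate, was applied to PCR-built, transcribed mutant libraries of each subunit of a heterodimeric triplet polymerase ribozyme. The steps were annealing with a biotinylated primer, partner subunit and triplets, incubation frozen at −7 °C, gel excision of extended constructs, streptavidin-bead capture and RT-PCR. Fitness is the logarithm, base 2, of genotype enrichment over wild-type enrichment from inverse-variance-weighted replicate averages of Illumina-sequenced inputs and outputs, keeping genotypes with ≥10 input reads and ≥1 read per output.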

Row | Variant | polymerase ribozyme fitness (log ratio)
1 | G80U C93A C108G A138U G141A | ≤ -4.2
2 | G80U C108G | ≤ -4.2
3 | G80U C114U | -2.31
4 | G80U G84C A97G U134C | ≤ -4.2
5 | G80U U82C | -1.68
6 | G81A A89C | -0.165
7 | G81A A91C C95G G124C | ≤ -4.2
8 | G81A A91G | -2.82
9 | G81A A91G C93U G136U | ≤ -4.2
10 | G81A A106U | -1.09
11 | G81A A107U | -3.89
12 | G81A C85A C149U | -0.877
13 | G81A C85U C132A | -2.23
14 | G81A C95U | -1.88
15 | G81A C96U C114G A115U | -3.6
16 | G81A C99G G100C G128A U146G | ≤ -4.2
17 | G81A C103G U135C A137U | ≤ -4.2
18 | G81A C105G A121U | -1.1
19 | G81A G84A C85G A106U C129A U144C | ≤ -4.2
20 | G81A G86A A97C | -0.925
21 | G81A G86A C116A U148C | ≤ -4.2
22 | G81A G88C A120U U134G G141C C149U | ≤ -4.2
23 | G81A G94A G143U | -2.83
24 | G81A G133C | -3.84

Row | Variant | polymerase ribozyme fitness (log ratio)
25 | G81A G133U | -3.84
26 | G81A G152C | -3.29
27 | G81A U144C | -1.41
28 | G81A U148C | -1.48
29 | G81C A91U | ≤ -4.2
30 | G81C A91U U151G | ≤ -4.2
31 | G81C C85U A89U A142G | -1.67
32 | G81C C87A A91U C93U C114G A138C G141C | ≤ -4.2
33 | G81C C87A U127C U144A U148A | ≤ -4.2
34 | G81C G83U G92C U101G | ≤ -4.2
35 | G81C G84A A115C G133U C149U | ≤ -4.2
36 | G81C G94U A98U U146G | -0.695
37 | G81C G133U | ≤ -4.2
38 | G81C U102C A147G | -3.21
39 | G81C U102G U130G G141A | ≤ -4.2
40 | G81C U109G A110U U134C | ≤ -4.2
41 | G81U A97U C105U | 0.976
42 | G81U C85G G117C U148G | ≤ -4.2
43 | G81U C85U | -0.466
44 | G81U C85U A115C G136C | -3.36
45 | G81U C87A C103G A147C | ≤ -4.2
46 | G81U G84A | -1.28
47 | G81U G84U A119U G143A | -1.61
48 | G81U G92C C116A G133C | -3.35

Row | Variant | polymerase ribozyme fitness (log ratio)
49 | G81U U82A G92A G152U | ≤ -4.2
50 | G81U U82C G83C C93G G143A | ≤ -4.2
51 | U82A | -0.0631
52 | U82A A107U | -2.79
53 | U82A A113C G117U G141C | ≤ -4.2
54 | U82A C93G C108A U134A | ≤ -4.2
55 | U82A C93G G126U | -2.84
56 | U82A C93U A119U U127G G143C | -4.06
57 | U82A C96G | -0.244
58 | U82A C99A C118U | -1.42
59 | U82A C118A G140A | ≤ -4.2
60 | U82A C118U | -0.0134
61 | U82A C129A | -2.19
62 | U82A G83C C123U | -1.12
63 | U82A G84U G94U A150G | ≤ -4.2
64 | U82A G124A | 0.114
65 | U82A G126A | 1.28
66 | U82A U90G G128A | ≤ -4.2
67 | U82C | -0.0678
68 | U82C A115G | -0.965
69 | U82C A115G A138U | -4.19
70 | U82C C85U C114A | -3.22
71 | U82C C95A | -1.46
72 | U82C C95A C118A U134G | ≤ -4.2

Row | Variant | polymerase ribozyme fitness (log ratio)
73 | U82C C95U C114A U127A G140C | ≤ -4.2
74 | U82C C96G A120U U127G | -2.72
75 | U82C C114U | -1.99
76 | U82C G84A A107C A110U | ≤ -4.2
77 | U82C G84A G117U | -0.688
78 | U82C G86A | -2.06
79 | U82C G88A U104C G143A | ≤ -4.2
80 | U82C G94C C108A A110G A113G G140U | ≤ -4.2
81 | U82G | 0.17
82 | U82G A91U | ≤ -4.2
83 | U82G A97G A98G C118A A119C G140C | ≤ -4.2
84 | U82G A98G G117A A122U | 0.376
85 | U82G A137C | -2.98
86 | U82G C85G A110C | ≤ -4.2
87 | U82G C85U C95A A110U | ≤ -4.2
88 | U82G C87A | ≤ -4.2
89 | U82G C95A | -1.03
90 | U82G C95G G126C | -1.07
91 | U82G C96A | 0.287
92 | U82G C96U | -2.13
93 | U82G G83A A89G A106G G128A | ≤ -4.2
94 | U82G G84C | -4.06
95 | U82G G86A C96A | -2.04
96 | U82G G86U | -1.46

Row | Variant | polymerase ribozyme fitness (log ratio)
97 | U82G G92C G124C G140A A147G | ≤ -4.2
98 | U82G G92U A97G A138C | ≤ -4.2
99 | G83A | -0.336
100 | G83A A97U A98U A138U | -4.07
101 | G83A A106G A119C | -0.0979
102 | G83A A107G G126A | ≤ -4.2
103 | G83A A107G G136A G140A | ≤ -4.2
104 | G83A A110C C123G | ≤ -4.2
105 | G83A A119C | -2.44
106 | G83A A142G U148A | -4.11
107 | G83A A147C | 0.0173
108 | G83A A150U | 0.356
109 | G83A C85A C118U G140A | ≤ -4.2
110 | G83A C85G C96A | ≤ -4.2
111 | G83A C85G U134C A142U | ≤ -4.2
112 | G83A C85U | -1.94
113 | G83A C85U G128A C132U | ≤ -4.2
114 | G83A C87A | ≤ -4.2
115 | G83A C93U | -1.36
116 | G83A C95A A113U | -3.12
117 | G83A C95G | -1.23
118 | G83A C95U | -0.657
119 | G83A C99U G143A A147U | -3.6
120 | G83A C103G A110G | ≤ -4.2

Row | Variant | polymerase ribozyme fitness (log ratio)
121 | G83A C108U | -3.01
122 | G83A C108U C125G | -3.77
123 | G83A C132G G133C | -2.67
124 | G83A G88A A91G G112U G140U G143C | ≤ -4.2
125 | G83A G88U | ≤ -4.2
126 | G83A G88U A89U G100U C125A | ≤ -4.2
127 | G83A G88U A106G G117U G136U | ≤ -4.2
128 | G83A G88U C125A G152U | ≤ -4.2
129 | G83A G88U U104G C125U A147U U148C A150C | ≤ -4.2
130 | G83A G88U U111G U135A | ≤ -4.2
131 | G83A G92C A97U U134A | ≤ -4.2
132 | G83A G92U C118G | -1.41
133 | G83A G117C U145G | -1.38
134 | G83A G124C | -2.64
135 | G83A G126C | 0.173
136 | G83A G128A | -3.83
137 | G83A G141C | -1.87
138 | G83A G141U G143A | ≤ -4.2
139 | G83A U90G G94C A110G G152U | ≤ -4.2
140 | G83A U135G | ≤ -4.2
141 | G83A U151G | -3.97
142 | G83C | -0.934
143 | G83C A89C A138G A142U | ≤ -4.2
144 | G83C A89U A91G A106U A121U U148C | ≤ -4.2

Row | Variant | polymerase ribozyme fitness (log ratio)
145 | G83C A98G | -3.71
146 | G83C A121U | 0.406
147 | G83C A138U C149G | ≤ -4.2
148 | G83C A147U | 0.501
149 | G83C A150G | -2.66
150 | G83C C85G C103A | ≤ -4.2
151 | G83C C87A C118U U151G | ≤ -4.2
152 | G83C C93G | ≤ -4.2
153 | G83C C93U C96A | -1.71
154 | G83C C95U C96A C103G | ≤ -4.2
155 | G83C C95U G126A | -2.05
156 | G83C C96U C108G G143U | ≤ -4.2
157 | G83C C96U C125A G128U C132U U144G A150G | ≤ -4.2
158 | G83C C99A G133A | -4.12
159 | G83C C103G G126U A147C | ≤ -4.2
160 | G83C C105G | -2.69
161 | G83C C116A A121C | 0.158
162 | G83C C125G G133A U145G | ≤ -4.2
163 | G83C C132A | -2.69
164 | G83C C132G | ≤ -4.2
165 | G83C G84U A110C | ≤ -4.2
166 | G83C G84U C87U U102G A107U | ≤ -4.2
167 | G83C G86A A106G G124C | ≤ -4.2
